Assay [1] has as its system Colletotrichum orbiculare. Particulars: for Test H control value (anthracnose on cucumber): 250 ppm spray, 2.5 ml/pot, investigated 6 to 10 days after inoculation.
Assay [2] has as its system Phytophthora infestans. In kind it is in vivo. The settings on record: class of control value, Table 7.
Assay [3] relates to Magnaporthe grisea. It is filed as in vivo. The settings on record: class of control value, Table 7.

The results in this text go back to US11178870B2 (priority 2017, dated 2021).

For `CCn1c(-c2ccc(F)cc2Br)c(-n2cc(F)cn2)cc(Cl)c1=O` [Compound 352], the “control value, Test H (anthracnose on cucumber)” value in assay [1] (250 ppm sprayed (2.5 ml/pot) before inoculation, assessed 6 to 10 days after inoculation) is reported as “H (H shows the control value more than 50%)”.

`CCn1c(-c2ccc(SC)cc2F)c(-n2ncc(C)c2Cl)cc(Br)c1=O` [Compound 373]: in assay [2], the “Test F control value (late blight on tomato)” value (“Test F control value” below) was “L (L shows the control value of 50% or less)”. For the same molecule, the “Test A control value (blast on rice)” value in assay [3] was “H (H shows the control value more than 50%)”. Besides, the “Test H control value (anthracnose on cucumber)” value (“Test H control value” below) in assay [1] is “H (H shows the control value more than 50%)”.

As to `CCn1c(-c2c(F)cccc2F)c(-c2sccc2C)cc(Cl)c1=O` [Compound 381], the “Test F control value” value in assay [2] is given as “H (H shows the control value more than 50%)”. In addition, the “Test A control value (blast on rice)” value in assay [3] was “H (H shows the control value more than 50%)”. For the same molecule, the “Test H control value” value in assay [1] is recorded as “H (H shows the control value more than 50%)”.

As to `CCn1c(-c2c(F)cccc2F)c(-c2ccsc2C)ccc1=O` [Compound 377], the “Test F control value” value in assay [2] is on record as “H (H shows the control value more than 50%)”. Besides, in assay [3], the “Test A control value (blast on rice)” value is “H (H shows the control value more than 50%)”. Also, the “Test H control value” value in assay [1] is on record as “H (H shows the control value more than 50%)”.
